Experimental data taken from PubChem BioAssay AID2675 (National Center for Advancing Translational Sciences (NCATS), 2010).
About 100 (0.036%) of roughly 280,000 compounds were called active. Inconclusive means that the source gave no clear call. Such entries were picked first, then a sample of the others. The call rests on the fitted dose curve; in most records, active means well fitted inhibition curve with a large enough effect in the signal ratio, with a control signal flat (not every such curve was filed as active); inconclusive means small, poorly fitted or top-dose-only effect, or effect the other way, or a change in a side signal; inactive means no such curve, though single readings can be large or run the other way; the % refers to the signal ratio. Where the call is inconclusive, the potency comes from a doubtful curve fit. A note “side channel” means that the fit belongs to a control or component signal, not to the main read-out.

Molecular target: Muscleblind-like protein 1 (Homo sapiens) (UniProt Q9NR56)
Sequence of UniProt Q9NR56 (Q9NR56 whole entry, looked up): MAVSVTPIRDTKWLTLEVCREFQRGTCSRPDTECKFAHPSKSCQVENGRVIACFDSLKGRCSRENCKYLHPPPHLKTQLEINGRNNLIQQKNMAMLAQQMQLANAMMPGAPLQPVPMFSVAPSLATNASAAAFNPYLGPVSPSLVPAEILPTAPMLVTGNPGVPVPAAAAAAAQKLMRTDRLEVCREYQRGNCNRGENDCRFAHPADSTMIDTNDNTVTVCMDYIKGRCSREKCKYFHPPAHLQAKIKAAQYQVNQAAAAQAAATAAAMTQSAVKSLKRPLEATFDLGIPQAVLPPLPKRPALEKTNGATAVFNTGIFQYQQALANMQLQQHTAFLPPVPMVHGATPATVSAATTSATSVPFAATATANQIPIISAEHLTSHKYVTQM
Assay: qHTS Assay for Inhibitors of MBNL1-poly(CUG) RNA binding
Conditions: TR-FRET MBNL1-His/biotin-(CUG)12 binding, 665/545 ratio; series mostly up to 57.5 µM
Outline: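 Compound titration spanned 92 nM–58 uM against the MBNL1-His/biotin-(CUG)12 complex. After 60 min at room temperature with 5 nM streptavidin-XL665 and 0.055 ng/ul terbium anti-His, ratiometric 665/545 nm emission (Ex 340 nm) normalized to controls.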
Potency means the concentration at half of the fitted maximal effect; tags describe the fitted curve by direction and shape or compound fluorescence and quenching.

Structure (SMILES)	Potency
NC(=O)c1ccc(Nc2ccc3nonc3c2[N+](=O)[O-])cc1	inconclusive: 3.98 µM [quencher, side channel, full curve]
O=C(N/N=C/c1ccncc1)c1cc([N+](=O)[O-])cc([N+](=O)[O-])c1O	inconclusive: 28.2 µM [quencher, side channel, partial curve]
COc1cc([N+](=O)[O-])ccc1NC(=O)/C=C/C(=O)O	inconclusive: 10 µM [quencher, partial curve]
COCCCN1C(=O)c2ccc(C(=O)NCc3ccco3)cc2C1=O	inconclusive: 14.1 µM [quencher, side channel, partial curve]
Cc1cc(C(=O)Nc2ncn(Cc3ccc(F)cc3)n2)ccc1[N+](=O)[O-]	inconclusive: 25.1 µM [quencher, side channel, partial curve]
Cc1ccc(S(=O)(=O)Nc2csc(C)c2C(=O)O)cc1	inconclusive: 100 µM [inhibitor, partial curve]
CC(C)(C)OC(=O)NCC(=O)Oc1cc2oc(=O)cc(-c3ccccc3)c2cc1Cl	inconclusive: 39.8 µM [quencher, side channel, single point]
O=C1c2ccccc2C(=O)N1COc1ccc(S(=O)(=O)N2CCOCC2)cc1[N+](=O)[O-]	inconclusive: 12.6 µM [quencher, partial curve]
N=c1c(C(=O)NCc2ccc(F)cc2)cc2c(=O)n3ccccc3nc2n1Cc1ccco1	inconclusive: 39.8 µM [quencher, single point]
CN(C(=O)COC(=O)c1cc(-c2ccco2)nc2ccccc12)C1CCS(=O)(=O)C1 (stereo not given)	inconclusive: 10 µM [quencher, side channel, partial curve]
Cc1[nH]n(C(N)=S)c(=O)c1N=Nc1ccc(S(=O)(=O)N2CCCCCC2)cc1	inconclusive: 28.2 µM [quencher, partial curve]
C=CCn1c(SCC(=O)Nc2nc(C)cs2)nnc1C(C)NC(=O)c1ccccc1Cl (stereo not given)	inconclusive: 31.6 µM [inhibitor, single point]
CCOC(=O)c1c(-c2ccc(-c3ccccc3)cc2)csc1NC(=O)c1cccc(N2C(=O)CCC2=O)c1	inconclusive: 0.316 µM [fluorescent, side channel, full curve, poor fit]
COc1cc2cc(Br)cc(Br)c2nc1C	inconclusive: 12.6 µM [fluorescent, side channel, partial curve]
O=C(CN1CCOCC1)Nc1c2c(nc3ccccc13)N(Cc1ccccc1)CC2	inconclusive: 0.708 µM [quencher, side channel, partial curve, poor fit]
COCCOC(=O)c1sc(=S)n(CCOC)c1N	inconclusive: 8.91 µM [quencher, side channel, full curve, poor fit]
CCOC(=O)c1cnc2ccc(Cl)cc2c1NCCN(C)C	inconclusive: 7.08 µM [quencher, side channel, single point]
O=C(O)c1ccc(-c2ccc(/C=N/Nc3ccc([N+](=O)[O-])cc3)o2)cc1	inconclusive: 22.4 µM [quencher, side channel, partial curve]
c1ccc2oc(C3=NNC(=NC4CC4)SC3)cc2c1	inconclusive: 15.8 µM [quencher, side channel, partial curve]
O=C(COc1ccccc1C(=O)N/N=C\c1ccc(O)c(O)c1)N/N=C/c1ccc(O)c(O)c1	inconclusive: 20 µM [quencher, side channel, partial curve]
CC1CCN(CCC(=O)Nc2ccc3c(c2)CCC3)CC1	inconclusive: 39.8 µM [quencher, side channel, single point]
CCN(CC)S(=O)(=O)c1cccc(NC(=O)C2SC(=Nc3ccc(C)cc3C)C(C(=O)NC(C)COC)=C2N)c1 (stereo not given)	inconclusive: 22.4 µM [quencher, side channel, partial curve]
O=C(O)CCN1C(=O)c2ccc(NC(=O)CSc3ccccc3)cc2C1=O	inconclusive: 0.251 µM [quencher, side channel, partial curve]
Cc1ccc(-c2ccnc3nc(-n4cccc4)nn23)o1	inconclusive: 12.6 µM [quencher, side channel, partial curve]
CCOc1ccc(CN(C(=O)/C=C/c2ccco2)C2CCS(=O)(=O)C2)cc1 (stereo not given)	inactive
Nc1c(C(=O)N/N=C/c2cccnc2)oc2nc(-c3ccccc3)cc(-c3ccco3)c12	inconclusive: 39.8 µM [quencher, side channel, partial curve]
CC(C)N(Cc1nc(-c2ccccc2)no1)C(=O)c1ccc(Br)o1	inactive
CCOC(=O)c1c(C)[nH]c(C)c1S(=O)(=O)N1CCN(c2ccc([N+](=O)[O-])cc2)CC1	inconclusive: 5.62 µM [quencher, side channel, partial curve]

Structure (SMILES)	Potency
CCOC(=O)c1c(NC(=O)Cc2ccccc2)sc2c1CCN(CC)C2	inconclusive: 17.8 µM [quencher, side channel, single point]
Cc1nc(N2CCC(C)CC2)c2c(C)c(C(=O)Nc3ccccc3C(F)(F)F)sc2n1	inconclusive: 35.5 µM [fluorescent, single point]
Nc1c(N)c2ccccc2oc1=O	inconclusive: 22.4 µM [quencher, side channel, single point]
COc1ccc(NC(=O)c2ccc3c(c2)C(=O)N(CC2CCCO2)C3=O)cc1O (stereo not given)	inconclusive: 8.91 µM [quencher, side channel, partial curve]
COc1ccc(C(=O)CN2CCN(S(=O)(=O)c3cccc([N+](=O)[O-])c3)CC2)cc1	inconclusive: 25.1 µM [quencher, side channel, single point]
O=[N+]([O-])c1ccc(-c2ccc(/C=N/O)o2)cc1	inconclusive: 20 µM [quencher, side channel, partial curve]
COc1ccc2c(c1)/C(=N/N1C(=O)c3ccccc3C1=O)C(=O)N2	inconclusive: 14.1 µM [quencher, side channel, partial curve]
CC(=O)c1ccc2noc(-c3ccc(C)cc3)c2c1	inconclusive: 15.8 µM [quencher, side channel, partial curve]
CCOC(=O)COn1c(=O)c(-c2ccc(Br)cc2)[n+]([O-])c2ccccc21	inconclusive: 2.51 µM [quencher, side channel, full curve]
Cc1cccn2c(=O)c(C=Nc3ccc(Cl)cc3)c(NCCO)nc12	inconclusive: 28.2 µM [quencher, side channel, single point]
COC(=O)Nc1nn(-c2ccc(OC)cc2)c(=O)c(C#N)c1C	inconclusive: 14.1 µM [quencher, side channel, partial curve]
O=[N+]([O-])c1ccc(COc2ccc(Br)cc2CN2CCOCC2)cc1	inconclusive: 31.6 µM [quencher, single point]
Cc1nc2c(c3c1[nH]c1ccccc13)C(=O)CC(C)(C)C2	inconclusive: 28.2 µM [quencher, side channel, partial curve]
COc1cc(-c2cn(S(=O)(=O)c3cccc4nsnc34)nc2N)cc(OC)c1OC	inconclusive: 11.2 µM [quencher, partial curve]
COc1cccc(=O)c2c(C)n(-c3ccc(C(=O)O)cc3)c(C)c12	inconclusive: 12.6 µM [quencher, side channel, partial curve]
COC(=O)c1nnn(CC(=O)NC(=O)Nc2ccccc2F)c1C(=O)OC	inactive
CC(C)CCNC(=O)c1cc2c(=O)n3ccccc3nc2s1	inconclusive: 11.2 µM [quencher, partial curve]
COc1cc(CO)c(Br)cc1OCC(=O)Nc1ccccc1C	inconclusive: 39.8 µM [fluorescent, single point]
CNC(=S)N1CCn2cccc2C1c1ccc(F)cc1 (stereo not given)	inconclusive: 39.8 µM [quencher, side channel, single point]
CC1NC(=O)NC1CCCCCC(=O)NCCc1ccccc1 (stereo not given)	active: 0.447 µM
COc1ccc(C2C3=C(N=C4SCC(=O)N42)c2ccccc2CC3)cc1 (stereo not given)	inconclusive: 35.5 µM [quencher, side channel, single point]
O=C(COC(=O)c1ccc[n+]([O-])c1)Nc1c(Br)cc([N+](=O)[O-])cc1Br	inconclusive: 15.8 µM [quencher, side channel, partial curve]
CCOC(=O)c1ccc[n+](C(C)C(=O)c2ccc(-c3ccccc3)cc2)c1 (stereo not given)	inconclusive: 28.2 µM [quencher, side channel, partial curve]
COc1ccc(/C=N/NC(=O)c2cc3cc(OC)c(OC)cc3[nH]2)cc1	inconclusive: 25.1 µM [quencher, side channel, single point]
CN(CC(=O)Nc1ccccc1C(F)(F)F)C(=O)c1cc([N+](=O)[O-])ccc1N1CCOCC1	inconclusive: 28.2 µM [quencher, single point]
Oc1ccccc1/C=N/NC(=S)NC1CC2CCC1C2 (stereo not given)	inactive
O=C(C[n+]1ccc(C(=O)N/N=C/c2ccc(Cl)cc2Cl)cc1)c1ccccc1	inconclusive: 39.8 µM [quencher, side channel, single point]
